Data as given in PMC11236154.
Where a chain is given by its changes, count along the chain named. Results are given in words; binding and its absence hold for the method and conditions named. In cells and extracts the contact can be indirect. Some binding calls cover weakened binding; strength is not graded here. Tags and fused reporters may be left off the sequences shown.

Tests used:
Experiment in all cases: co-IP; both proteins co-expressed in HEK293T cells; lysate in 1% Triton X-100, 50 mM Tris-HCl pH 7.5, 150 mM NaCl; Dynabeads magnetic beads; Western blotting; which partner was precipitated is not told
PA-tagged RAB2A = PA-tagged RAB2A (UniProt P53994)
[1] = target: T1, constitutively active (CA; GTP-bound) form of RAB2B, Q65L (UniProt P59279)
T1 sequence: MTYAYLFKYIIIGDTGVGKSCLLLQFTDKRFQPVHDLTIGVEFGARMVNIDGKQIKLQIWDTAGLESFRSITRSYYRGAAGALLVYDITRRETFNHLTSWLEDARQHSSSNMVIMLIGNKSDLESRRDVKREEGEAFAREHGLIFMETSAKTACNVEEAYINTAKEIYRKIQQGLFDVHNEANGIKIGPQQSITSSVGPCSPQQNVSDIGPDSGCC

[2] = target: T2, constitutively negative (CN; GDP-bound) form of RAB2A, S20N (UniProt P53994)
T2 sequence: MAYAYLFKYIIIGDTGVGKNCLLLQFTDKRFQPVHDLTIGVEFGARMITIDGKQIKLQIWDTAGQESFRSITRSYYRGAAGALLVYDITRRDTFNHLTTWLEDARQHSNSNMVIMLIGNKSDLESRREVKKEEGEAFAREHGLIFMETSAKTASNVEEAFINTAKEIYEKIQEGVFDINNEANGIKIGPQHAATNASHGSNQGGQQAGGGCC

[3] = target: T3, constitutively active (CA; GTP-bound) form of RAB2A, Q65L (UniProt P53994)
T3 sequence: T2 sequence with N20S, Q65L

PA-tagged RAB2B = PA-tagged RAB2B (UniProt P59279)
[4] = target: T4, constitutively negative (CN; GDP-bound) form of RAB2B, S20N (UniProt P59279)
T4 sequence: T1 sequence with S20N, L65Q

Measured: binding

B1: FLAG-tagged GARIN2 (protein, UniProt D3YV92 1-440)
chain: MMKKNRNKKAMNKQEALFIPHYYRLGHLKNILDGGEYAPYVSPPILESNFIQVNRRGESIYLHNRANWVTVGICSSNPIFKTPNMMLLAHLTPEARKEPEPLFKTLLKSSSSGTLVLTRFIPLQFVTLSVHSAKNMRLKVKLINGRSYYLQLCAPVYKQDIIFSQWVDLIPLLNQEKIKNTKVSEVSSLSELTNSTDIAGSMDITDITAFRELRPRHPKTHRYPCNIMESADFSEYTDVTDVTDVTDVTDMLDNGITDVQDIKIVTEVTEVTEVTEVTEVSEVSDVKMATNISGVKIVFENDDIIKTKQEEKEYTLKHRSLQDTKTKSDYQDSPNPVTMSNIALALQDEGCFQTTQTPVKSKEDIYKEICDETSEENMIRLQNIHLKATESRSTRTDSDISDGELKLGRYLHKQCSSREQSFIHSLGSLPRGFVFLHLLL
binds weakly: [2]
binds: PA-tagged RAB2A | [1] | [3] | PA-tagged RAB2B

B2: FLAG-tagged GARIN3 (protein, UniProt Q5STT6 1-665)
chain: MPGMKRTMSSECLLPYYTAHSYRSMGVFNTSMGNLQRQLYKGGEYDIFKYAPMFESDFIQISKRGEVIDVHNRVRMVTVCIASTSPVLPLPDVMLLARPAKVCEEHARRARFIKGKGCKPSKTLELTRLLPLKFVKISVHDHEKQQLRLKLATGRTFYLQLCPSSDAREDLFCYWEKLVYLLRPPMTNCISNSTLPTGETSVDTKSTLVSEIRGEGDQNSRPQSSPTVSEATSAAFAGGERTQPAAAAAVTPVSAKARAAGTAGAAAGTAGAAAGTAGPAAGPAAGTAGPAAGTAGAAAGTAGAAAGTAGATAGTAGATAGMAGATAGTAAETAGTAAETAGAARAAGGPMAAAVAAPSAGMTKAETATSPTSGVISLAATTTKPPGSGQVAAAMIGSAAKDQVGGESSKAMALAANITLENVDVALAGAANSISESPPAGGDASGSPDTGLNVAFAGSIKTKSPAEDKPEAPLVSTLQSEGYMCERDGSQKVSQTSSEAKEKRERREKDRTSSRKSSHHRRTGMSRHSSKDKSRKTSSYRSVSGKTREDKGKGHGRLRGKRHSSSHKSESRTGHKTRKNRSPAGLGSVSKRATKITSFFRSFLVRPTPKAGDTSCDRGGVDIVTKLVEKKQDIEAVMEKSKDSEFKDTVISETMEKIILETKSI
binds: PA-tagged RAB2A | [1] | [4] | [2] | [3] | PA-tagged RAB2B

B3: GARIN1B (protein, UniProt Q3UZD7 1-341)
chain: MMTSVPPRKSWWTSKKTVKVIRSYPTFPSLNAWEKFRGLLPVDGETNPGVGLGVEEGLLCQMVHSPEFNLFPNSVVFESNFVQVRRSRNWKEIYKASNTMALGVTSSVPCLPLPNILLMARVKWHQGQSQTWNRPSRAPSINLKSILPLKFVELQIWDDQERVLRLRTVTEKIYYLKLHPDHPETVFHFWIRLVQILHKGLSITTKDPTILVTHCLVPKSLCSPGGKTELVQKKSKGLQPSESLTHLMAQGESETLSQIFSDLHQQKQYRSEKMHINKTSSEKATPCEDSIPCTCDLNWRDAFMFGEWERENPSGPQPLSLLGTLAASSRPRLSLTGGNSI
binds: [1] | [3]
no binding: [4] | [2]

B4: FLAG-tagged GARIN5A (protein, UniProt A1L3C1 1-212)
chain: MKGGRDLKAARGGADRPLAPAYAPCRPGRLQRHLLSGEFDQLRDFPIFESNFVQVTRFGEVANKVTMGVAASSPALELPDLLLLAGPDKENGHLQLLGLFPLQFVQLFVHDESRQQLKVKFRTGRAFYLQLRSPPETRDCEFGRWVRLLYRLRFHSPTCAVPFTHEDTAPEEEEEEEEEEEEEEVKEGQLQPPEFQATEARLDPQVSELWGL
binds: PA-tagged RAB2A | [1] | [2] | [3] | PA-tagged RAB2B

B5: FLAG-tagged GARIN4 (protein, UniProt B7XG49 1-585)
chain: MDVKEESLLPYYTAQSGAEVGMFNGLFDTATGKLQQQLHKGEYDIFKYAPIFESDFIQITRYGEVIDVHNRVRMVTVGIACTSPILPLPDVMLLARPAPFDELLGHGQSTNSTKGKKRKAGKTLELTRLLPLKFVRISVHRRDEQQLRLKFATGRSCYLQLCPPPESKDDLFSYWEKLIDLLRPPVDSNTSTYAIPAGDMMSTPFLDEELKIPKKKGKRKSGHRKKRDLYKVSVKSLPATTDVSAISSSAFSGGEETHDSHISTIVSRIPTPKVSSKVLARESASEAIVCDLVDSLSLAANMPEGLGQINKATVEEAALGARGSKSHLTIASTGKMSPKSMKIALAGMASKSLEYIPSSPASLSRKEIMTVTNSRIETTGKSVGETANDPVPVVLALTLPSESHSNEETGRRKAYETSTKAHKERRSRRDQRAKERVGSRSEQHQRTGEGHKTEGDKEFQKSTSHRGVGDDKDKGSKRNRWHKGVSHVPITKESRSSHKLSRTISTASSASTSKRVGRISLFLRNIRASLAGKSLAPRGQDVGIMTKTLETTDVKAIMEAEDGQGLEIIDSVTSEVMETVTFEAH
binds: PA-tagged RAB2A | [1] | [3] | PA-tagged RAB2B
binds weakly: [2]
